PubChem BioAssay AID1347073 (National Center for Advancing Translational Sciences (NCATS), 2019)
Screen size: about 45,000 compounds; about 200 (0.44%) were called active. About 7% were inconclusive and are not listed. The call rests on the fitted dose curve; in most records, active means well fitted activation curve with a large enough effect; inconclusive means small, poorly fitted or top-dose-only effect; inactive means no such curve, though single readings can be large or run the other way. Some of the results follow.

Assay: qHTS of TDP-43 Inhibitors: NCGC Sytravon Library Screen; further: 0% is about no effect; nearly all actives have a fitted effect of over 55% in size
Conditions: yeast TDP-43 toxicity rescue, BacTiter-Glo growth, 24 h; series mostly up to 46.1 µM; growth rescue (activation): at the top concentration
Summary of the method: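 TDP-43-expressing yeast, pregrown in raffinose, seeded at OD600 0.02 in galactose medium with compound for 24 hr at 30 deg C. Growth read by BacTiter-Glo luminescence, so rescue of toxicity appears as activation.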

SMILES | growth rescue (activation)
NC(=O)NOCc1ccccc1F | inactive: -6.37%
O=C(Nc1ccc(Cl)cc1Cl)NC1CCCC1 | inactive: -0.611%
O=C(CSc1nc(-c2ccc(F)cc2)cc(C(F)(F)F)n1)NCc1cccs1 | inactive: 9.41%
CN(C)CCn1c(=O)n(C2CCCCC2)c(=O)c2c3c(sc21)CCCCC3 | inactive: -28.8%
CCN(CC)S(=O)(=O)c1cc([N+](=O)[O-])ccc1N=Nc1c(O)n(C)c2ccccc12 | inactive: 18.2%
COc1cc(NC(=O)CCS(=O)(=O)c2ccc3c(c2)n(C)c(=O)c(=O)n3C)cc(OC)c1 | inactive: -0.206%
Cc1ccc2nc(CSc3nnc(Nc4ccccc4C)s3)cc(=O)n2c1 | inactive: 13.9%
O=C(NCc1ccc(F)cc1)c1cc(C2CCCCN2C(=O)c2cccs2)on1 (configuration not stated) | inactive: 22.8%
Nc1nc(-c2cccs2)c(CC(=O)O)s1 | inactive: 9.33%
O=C(OC(C(=O)NC1CCCCC1)c1ccccc1F)c1ccco1 (configuration not stated) | inactive: -2.2%
COc1ccc(NS(=O)(=O)c2cc(NS(=O)(=O)c3cccs3)ccc2C)cc1 | inactive: 1.61%
CCOC(=O)C1C(c2ccc(O)c(O)c2)NC(=S)NC1(O)C(F)(F)F (configuration not stated) | inactive: 7.32%
CCOC(=O)C1(C)CCCN1C(=O)c1ccc(C)cc1 (configuration not stated) | inactive: 3.81%
Cc1ccsc1-c1nc(CN(C)C(C2CC2)C2CC2)c(C)o1 | inactive: 12.2%
COc1ccc(-c2cc(NC=O)c3ncc(-c4ccc(C(C)=O)cc4)n3c2)cn1 | inactive: 18%
COc1ccc(-c2[nH]ncc2CN2CCC(N3CCSCC3)CC2)cc1F | inactive: 5.2%
CCC(C)NC(=O)c1ccccc1NC(=O)COc1ccc(OC)cc1 (configuration not stated) | inactive: 24.3%
CCCCNC(=O)/C=C1\Sc2ccccc2NC1=O | inactive: 9.03%
C=CCNc1nc(NCCOC)c2sc(-c3ccccc3)cc2n1 | inactive: 9.72%
Cc1ccc(-c2nc3ccccn3c2C=O)cc1 | inactive: 22.3%
Cc1no[n+]([O-])c1COc1ccc(/C=N/n2nnnc2N)cc1 | inactive: 3.27%
CCNc1nc2c(c(=O)n(C)c(=O)n2C)n1CCCc1ccccc1 | inactive: 1.54%
O=C(c1nnc(-c2ccccc2)o1)C1CC1 | inactive: 14.8%

SMILES | growth rescue (activation)
CN(CC(=O)N1CCN(Cc2ccccc2)CC1)C(=O)Cc1ccc(Cl)c(Cl)c1 | inactive: 2.73%
CC(=O)c1ccccc1NC(=O)CSc1n[nH]c(=O)n1C1CC1 | inactive: 1.31%
CN(/N=C/c1ccco1)C1=NS(=O)(=O)c2ccccc21 | inactive: -2.08%
COCC1CCCCN1Cc1cn[nH]c1-c1ccc(OC)cc1OC (configuration not stated) | inactive: 3.84%
Cc1c(C(=O)N2CCC2)oc2c(F)cccc12 | inactive: -2.27%
Cc1cccc(NC(=O)c2ccc(OCc3c(C)noc3C)cc2)c1C | inactive: 5.63%
COc1ccc2nc(SCC(=O)NCc3ccc(F)cc3)[nH]c2c1 | inactive: -1.89%
Cc1ccc2nc(C)c(C(=O)O)cc2c1 | inactive: 7.97%
Cc1ccc(C)c(NS(=O)(=O)c2ccc(OCC(=O)NCc3ccccn3)cc2)c1 | inactive: 2.52%
OC1(c2ccc(OC(F)F)cc2)CSC(=Nc2cccnc2)N1Cc1ccco1 (configuration not stated) | inactive: 27.5%
Cc1cccc2nc(CSc3nc4ccccc4[nH]3)cn12 | inactive: 0.858%
COc1ccc(C(C(=O)NC(C)(C)C)N(C(=O)CCC(=O)Nc2cc(C)on2)c2c(C)cccc2C)cc1 (configuration not stated) | inactive: 5.3%
CC(OC(=O)CCC(=O)N1CCN(S(=O)(=O)c2ccc3ccccc3c2)CC1)C(=O)NC(N)=O (configuration not stated) | inactive: -13.6%
COc1ccc(S(=O)(=O)N2CCN(Cc3cccs3)CC2)cc1OC | inactive: 29.7%
COc1cc(/C=N/n2c(-c3ccccc3)n[nH]c2=S)cc(OC)c1O | inactive: 35.2%
NS(=O)(=O)c1cccc(NC(=O)COC(=O)C2CCCCC2)c1 | inactive: 7.48%
O=C(NCc1ccccc1)c1ccc2c(c1)N(Cc1ccccc1)C(=O)c1ccccc1S2(=O)=O | inactive: 21.4%
CCCCCC(=O)NC(=S)Nc1cccc(-c2nc3ncccc3o2)c1 | inactive: -1.25%
Cc1cc(=O)n2[nH]c(NCc3c(F)cccc3Cl)nc2n1 | inactive: -6.18%
CC(C)C(OC(=O)c1cccs1)C(=O)NCCc1ccccc1 (configuration not stated) | inactive: 15.6%
O=C(CN1C(=O)S/C(=C/c2cccn2-c2ccc(O)cc2)C1=O)N1CCCC1 | inactive: 4.37%
COC(=O)C1C(c2ccccc2)C(C(=O)O)C1c1ccccc1 (configuration not stated) | inactive: 5.35%
O=C(CN1C(=O)C2CCCCC2C1=O)Nc1cccc(C(F)(F)F)c1 (configuration not stated) | inactive: 6.24%

SMILES | growth rescue (activation)
CC1CCCC(C)N1/N=C/c1cc(Br)cc(Br)c1O (configuration not stated) | inactive: -3.13%
O=C(/C=C/Nc1ccc([N+](=O)[O-])cc1)c1ccc(Br)cc1 | inactive: 14.1%
CCOC(=O)c1cccc(OCC(O)CNCCOc2ccccc2F)c1 (configuration not stated) | inactive: -13.5%
CC(=O)Nc1ccc(S(=O)(=O)N(Cc2ccccc2)c2ccccc2F)cc1 | inactive: 2.23%
CCOc1ccc(CC(=O)NNC(=O)NC2CCCCC2)cc1 | inactive: -8.73%
O=C(NCc1ccccc1)C(c1c(F)cccc1Cl)N(C(=O)c1csnn1)C1CC1 (configuration not stated) | inactive: -1.26%
CCOc1ccc(N=Nc2ccc(O)c3ncccc23)cc1 | inactive: 20.8%
NC(=O)C1CCN(CC(O)COCc2ccccc2Cl)CC1 (configuration not stated) | inactive: -10.8%
CCCCC(=O)Nc1cnc(NC(=O)c2ccco2)cc1C | inactive: -4.76%
COc1ccccc1CNC(=O)[C@@H]1CCCN1S(=O)(=O)c1ccc(Cl)cc1 | inactive: 6.12%
CC1=C(C)CC(C(=O)N2CCN(Cc3ccc4c(c3)OCO4)CC2)C(C(=O)O)C1 (configuration not stated) | inactive: -15.3%
COc1ccc(C(=O)NNC(=O)Cc2nc3ccccc3n2C)cc1 | inactive: 11%
COc1cccc(CN2CCN(C3CSCCSC3)CC2CCO)c1 (configuration not stated) | inactive: -2.07%
Cc1ccc(C)c(CN2C(=O)c3ccccc3S(=O)(=O)c3ccc(C(=O)N4CCOCC4)cc32)c1 | inactive: -5.56%
O=C(O)c1ccccc1C(=O)NC1CCCc2ccccc21 (configuration not stated) | inactive: 0.459%
C=CCc1c(C)nc2ccc(C(=O)OCC)cc2c1Cl | inactive: 27.3%
Cc1ccc(OCCCc2c(C)n[nH]c2C)cc1 | inactive: 14.8%
Cc1cc(C)c(NC(=O)CCn2nnc3ccccc32)c(C)c1 | inactive: 7.3%
O=S(=O)(c1cccs1)N1CCN(c2ccc(Cl)cc2)CC1 | inactive: -4.01%
O=C(COC(=O)CSc1ccc(Cl)cc1)Nc1ccc2[nH]c(=O)[nH]c2c1 | inactive: -22.8%
Cc1ccc(/C=C2\SC(=S)N(CCC(=O)NNS(=O)(=O)c3ccccc3)C2=O)cc1 | inactive: -13.7%
Cc1ccc(Nc2c([N+](=O)[O-])c(=O)oc3ccccc23)cc1C | inactive: -14.1%
Cc1cc2ccccc2n1CCNCc1c(C(=O)N2CCOCC2)nc2ccccn12 | inactive: 23.4%

SMILES | growth rescue (activation)
CCS(=O)(=O)Nc1ccc(C2=NN(C(=O)c3ccco3)C(c3ccc(Cl)o3)C2)cc1 (configuration not stated) | inactive: -2.79%
CSc1ccc(S(=O)(=O)N2CCC(C(=O)N3CCc4ccccc4C3)CC2)cc1 | inactive: 16.5%
CCOC(=O)C1CCN(S(=O)(=O)c2cccc(C(=O)Nc3ccccc3)c2)CC1 | inactive: 6.5%
CCC1(C)Cc2c(sc(NC(=O)CCC(=O)O)c2C#N)CO1 (configuration not stated) | inactive: 16.2%
Cc1ccc(C(=O)OCC(=O)NC2CC2)s1 | inactive: -5.08%
O=C(O)c1cccc(S(=O)(=O)NCC2COc3ccccc3O2)c1 (configuration not stated) | inactive: -9.49%
COC(=O)c1c(NC(=O)c2ccccc2OC)sc(C(=O)N2CCOCC2)c1C | inactive: 2.09%
COc1c(C)cc(Br)cc1C(=O)Nc1ccc(Cc2ccncc2)cc1 | inactive: 25.9%
O=C(Nc1cc(Cl)ccc1O)C1CCCO1 (configuration not stated) | inactive: 23.2%
O=C(Nc1ccccc1C(=O)O)c1ccc(CN2C(=O)c3ccccc3C2=O)cc1 | inactive: 9.44%
O=C(CSc1ncccc1C(=O)O)c1ccccc1F | inactive: -3.36%
CCOc1cc(C(N)=O)cc(Cl)c1OCC | inactive: 8%
CCc1nc2c(OCc3ccc(OC(F)F)cc3)cccn2c1N(C)C(=O)c1ccco1 | inactive: 15.3%
CSc1nc2nc3c(cc2c(=O)n1-c1ccccc1)COC(C)(C)C3 | inactive: 4.92%
CC(C)O/C(=N/S(=O)(=O)c1ccc(Cl)cc1)c1ccccc1 | inactive: 13.3%
Cc1cc(C)n(-c2ccc(C(=O)O)cc2[N+](=O)[O-])n1 | inactive: 2.55%
COc1cccc(OC)c1C(=O)OCC(=O)NCC(C)C | inactive: -0.0418%
CC1=C(C)/C(=N\OS(=O)(=O)c2ccc(C)cc2)C=CC1=O | inactive: -94.9%
O=C(C1CCCC1)N1CCN(S(=O)(=O)c2ccc(Cl)cc2)CC1 | inactive: -0.249%
Cc1noc(NS(=O)(=O)c2ccc(NC(=O)CC(C)C)cc2)c1C | inactive: -13.3%
COCCNC(=O)C1(C)CCN(C(=O)c2cccnc2Oc2ccccc2)C1 (configuration not stated) | inactive: 0.59%
O=C(NCc1cccs1)c1ccccc1F | inactive: 30%
C=CCn1c(C2CC2)n[nH]c1=S | inactive: -6.16%

SMILES | growth rescue (activation)
COCCSc1ccccc1C(=O)NCCc1ccccc1 | inactive: 17.6%
Cc1ccc(Nc2n[nH]c(C)c2[N+](=O)[O-])cc1 | inactive: 8.32%
COCCCNC(=O)CCc1nnc(Cc2ccc(-c3ccccc3)cc2)o1 | inactive: 6.12%
COc1ccc(C(=O)NC(=S)N2CCCCC2)cc1[N+](=O)[O-] | inactive: 20.1%
CC(C)(C)NC(=O)COc1ccc(CNCCc2ccccc2)cc1 | inactive: -2.63%
Cc1sc2ncn(/N=C/c3ccco3)c(=O)c2c1C | inactive: 17%
Cc1c(Cl)cnc(NC(=O)CSc2nnc(C)n2Cc2ccccc2)c1Cl | inactive: 24.7%
Cc1ccccc1C(=O)Nc1cccc(C(=O)N/N=C/c2ccccn2)c1 | inactive: 11.4%
Cc1ccccc1Nc1nc(N)nc(CSc2nnc3ccccn23)n1 | inactive: 25%
O=C(CN1N=C(c2ccc(Cl)cc2)CCC1=O)NCc1cccnc1 | inactive: 6.39%
CC(=O)Nc1ccc(S(=O)(=O)Nc2nc3ccccc3nc2Nc2cccc(S(N)(=O)=O)c2)cc1 | inactive: 9.15%
NC(=O)c1ccc[n+](CC(=O)Nc2ccccc2C(=O)O)c1 | inactive: -6.69%
CS(=O)(=O)N(CC(=O)Nc1ccccc1-c1ccccc1)c1ccccc1 | inactive: -1.2%
O=C(N/N=C/c1ccccc1OCc1ccccc1Cl)c1cccnc1 | inactive: 15.4%
Cc1ccc(NC(=O)CNCc2ccccn2)cc1S(=O)(=O)N(C)C | inactive: 3.18%
CCCc1cc(=O)[nH]c(SCC(=O)Nc2ccc(S(=O)(=O)N3CCCC3)cc2)n1 | inactive: 5.11%
O=C1OCC/C1=C\c1ccccc1 | inactive: 8.57%
COCCNC(=O)/C(C#N)=C/c1c(N2CCN(c3ccccc3)CC2)nc2c(C)cccn2c1=O | inactive: -7.85%
Cc1cccc(NC(=O)CSc2nc(C)c(Cc3ccccc3)c(=O)[nH]2)c1 | inactive: -16.1%
COc1ccc(-c2nc(CNS(=O)(=O)c3ccc(F)cc3)cs2)cc1 | inactive: 9.75%
